Data as given in the supplement of paper PMC4723716.
± gives the uncertainty stated by the source. Over roughly 9,900 compounds, “viability index relative to DMSO control” has its median near 1; the lowest 2% begin near 0.85. This is one part of the list.

Test system: Plasmodium falciparum NF54 stage V gametocytes
Test: viability index relative to DMSO control (fraction); higher = less gametocyte killing
Settings: 2.5 µM, library set: Broad Institute DOS, incubation time: 72 h
Protocol: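 Broad DOS informer set and blood-stage-active DOS compounds screened in duplicate at 2.5 µM against P. falciparum NF54 stage V gametocytes with the serum-free one-step SaLSSA (1536-well): 72 h at 37 °C under low oxygen, then saponin lysis and MitoTracker Red CMXRos staining, with high-content imaging. Viability index = viable-object count divided by the plate mean of DMSO wells (0 = killed, about 1 = inactive).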

Structure (SMILES) | viability index
N#C[C@@H]1N[C@@H](CO)[C@@H]1c1ccc(C#Cc2ccccc2F)cc1 | 1.046 ± 0.01
Cc1cccc(S(=O)(=O)N2C[C@@H](O)COC[C@@H]3O[C@@H](CC(=O)Nc4ccccc4)CC[C@H]32)c1 | 1.1 ± 0.015
CCCNC(=O)N1[C@H](C#N)[C@H](c2ccc(-c3ccccc3F)cc2)[C@H]1CO | 1.06 ± 0.055
Cc1ccccc1-c1ccc([C@@H]2[C@H]3CNC[C@@H]2N3Cc2ccc3c(c2)OCO3)cc1 | 1.02 ± 0.037
COc1ccc(CN(C)C[C@H]2OCCCC[C@@H](C)Oc3ccc(NC(=O)C4CCCCC4)cc3C(=O)N([C@@H](C)CO)C[C@H]2C)cc1 | 1.04 ± 0.029
O=C(c1ccccn1)N1C[C@@H]2[C@H](c3ccccc31)[C@@H](CO)N2C(=O)C1CCCCC1 | 1.03 ± 0.039
CCCC#Cc1ccc2c(c1)[C@H]1[C@H](CCN1S(=O)(=O)c1cccc(F)c1)[C@H](CO)N2C | 1.079 ± 0.002
CCS(=O)(=O)Nc1ccc2c(c1)C(=O)N(C)[C@@H]1CC[C@@H](CC(=O)NCCCN3CCOCC3)O[C@H]1CO2 | 1.07 ± 0.087
CN(C)C(=O)c1ccc(-c2ccccc2[C@@H]2[C@@H](C#N)N(C(=O)C3CC3)[C@H]2CO)cc1 | 1.16 ± 0.12
OC[C@H]1[C@H](c2ccc(-c3cccc(F)c3)cc2)[C@@H]2CN(Cc3cncnc3)CCCCN12 | 1.08 ± 0.1
C/C=C/c1ccc2n(c1=O)C[C@H]1[C@H](CO)[C@@H](C(=O)NCCCN(C)C)N(Cc3cocn3)[C@@H]21.C/C=C\c1ccc2n(c1=O)C[C@H]1[C@H](CO)[C@@H](C(=O)NCCCN(C)C)N(Cc3cocn3)[C@@H]21 | 1.04 ± 0.013
C[C@@H]1CN([C@H](C)CO)C(=O)c2cccc(N(C)C)c2O[C@H]1CN(C)Cc1ccncc1 | 1.06 ± 0.022
COc1ccc(CNC(=O)C[C@@H]2CC[C@@H](NC(=O)CN(C)C)[C@@H](CO)O2)cc1 | 1.08 ± 0.1
COC(=O)[C@@H]1N[C@@H]2c3ccc(C4=CCCCC4)c(=O)n3C[C@@H]2[C@H]1CO | 0.939 ± 0.038
O=C(NC1CCCC1)N1[C@@H]2CNC[C@H]1[C@H]2c1ccc(-c2cccnc2)cc1 | 1.02 ± 0.12
CN(C)C(=O)c1cccc(-c2ccc3c(c2)[C@@H]2[C@@H](CCN2C(=O)c2cnccn2)[C@@H](CO)N3)c1 | 1.12 ± 0.032
CO[C@@H]1CC[C@H]2CCOc3ccc(C#N)cc3C(=O)N(C)[C@H](C)C(=O)N(C)C[C@H]1O2 | 0.966 ± 0.051
COc1ccc(S(=O)(=O)N2C[C@@H](O)COC[C@@H]3O[C@@H](CC(=O)N[C@@H]4CCN(Cc5ccccc5)C4)CC[C@H]32)cc1 | 1.06 ± 0.032
COC(=O)C[C@@H]1CC[C@H]2[C@@H](COC[C@@H](O)CN2S(=O)(=O)c2ccccc2OC)O1 | 1.02 ± 0.034
O=C(C[C@@H]1CC[C@H]2[C@@H](COC[C@@H](O)CN2C(=O)Nc2ccc(F)cc2)O1)NC1CCC1 | 1 ± 0.1
C/C=C/c1ccc([C@@H]2[C@@H]3CN(C(=O)NC4CCCCC4)C[C@H]2N3)cc1 | 1.06 ± 0.031
CO[C@H]1CC[C@@H]2CCN(C)C(=O)[C@H](C)N(C)C(=O)c3cccc(C#N)c3OC[C@H]1O2 | 1.08 ± 0.1
COc1ccc2c3c([C@@H](CO)N(C[C@]33CN(C3)S(=O)(=O)c3cn(C)cn3)C(=O)Nc3ccc(F)cc3)n(C)c2c1 | 1.067 ± 0.0049

Structure (SMILES) | viability index
C[C@@H]1CN([C@@H](C)CO)S(=O)(=O)c2ccc(-c3cccc(C#N)c3)cc2O[C@@H]1CN(C)C(=O)c1ccccc1 | 1 ± 0.055
O=C(C[C@H]1CC[C@H]2[C@@H](COC[C@H](O)CN2C(=O)c2cnccn2)O1)NCc1ccc(Cl)cc1 | 0.993 ± 0.057
N#C[C@@H]1[C@@H](c2ccccc2C2=CCCCC2)[C@@H](CO)N1C(=O)CN1CCOCC1 | 1.12 ± 0.031
COc1ccccc1-c1ccccc1[C@@H]1[C@H](C#N)N(C(=O)C2CCOCC2)[C@H]1CO | 1.11 ± 0.045
COc1ccccc1NC(=O)N[C@@H]1CC[C@@H](CCNS(=O)(=O)c2ccc(Cl)cc2)O[C@H]1CO | 1.12 ± 0.17
C[C@@H]1CN([C@H](C)CO)C(=O)c2cc(N(C)C)ccc2O[C@@H](C)CCCCO[C@@H]1CN(C)C(=O)NC1CCCCC1 | 1 ± 0.023
C[C@H](CO)N1C[C@H](C)[C@@H](CN(C)C(=O)c2ccc3ccn(C)c3c2)OCc2cnnn2CCCC1=O | 0.986 ± 0.043
CO[C@H](CN(C)C(=O)c1cnccn1)[C@H](C)CN([C@@H](C)CO)S(=O)(=O)c1ccccc1 | 0.995 ± 0.057
COc1ccc(NC(=O)N2CC(=O)N3[C@H](CO)[C@@H](c4ccc(Br)cc4)[C@H]3C2)cc1 | 0.943 ± 0.082
CN(C)C(=O)C[C@H]1C=C[C@H](NC(=O)c2ccc(F)cc2)[C@@H](CO)O1 | 1.1 ± 0.2
O=C(C[C@H]1CC[C@H]2[C@@H](COC[C@@H](O)CN2C(=O)c2cnccn2)O1)N1CCN(c2ccccc2)CC1 | 1.02 ± 0.058
Cc1ccccc1S(=O)(=O)Nc1ccc2c(c1)C(=O)N(C)[C@@H]1CC[C@@H](CC(=O)O)O[C@H]1CO2 | 1.05 ± 0.078
COc1ccc(C#Cc2ccc3c(c2)[C@@H]2[C@@H](CCN2Cc2nccs2)[C@@H](CO)N3)cc1 | 1.08 ± 0.051
CS(=O)(=O)N1Cc2cc(C(=O)O)nc(-c3cccc(-c4ccccc4F)c3)c2[C@H]1CCO | 1.06 ± 0.075
C[C@H]1CN([C@@H](C)CO)C(=O)CCCn2cc(nn2)CO[C@@H]1CN(C)Cc1ccccc1 | 1.03 ± 0.042
C[C@@H]1CCCCO[C@H](CN(C)C(=O)CCCN(C)C)[C@H](C)CN([C@@H](C)CO)C(=O)c2cc(NC(=O)Nc3ccc4c(c3)OCO4)ccc2O1 | 1.0277 ± 0.00053
CN(C)C(=O)c1ccc(-c2ccccc2[C@@H]2[C@@H](CO)N(C(=O)C3CC3)[C@H]2C#N)cc1 | 1.08 ± 0.049
CO[C@H]1CN(C)C(=O)c2cc(NC(=O)c3ccc(F)cc3)ccc2OC[C@H](C)N(C(=O)CC2CC2)C[C@@H]1C | 1.11 ± 0.035
CCCNC(=O)Nc1ccc2c(c1)C(=O)N(C)C[C@@H](OC)[C@@H](C)CN(C)[C@H](C)CO2 | 0.9587 ± 0.0028
COc1ccc2c3c([C@H](CO)N(C[C@]33CN(C3)S(=O)(=O)c3ccccc3)C(C)=O)n(C)c2c1 | 1.016 ± 0.0073
O=C(CCN1CCCCC1)N[C@@H]1CC[C@H](CCn2cc(-c3cccc(F)c3)nn2)O[C@@H]1CO | 1.05 ± 0.16
N#C[C@H]1[C@@H](c2ccccc2-c2cccc(F)c2)[C@H](CO)N1S(=O)(=O)c1cccc(F)c1 | 1.17 ± 0.1
